At least one peptide structure holds a part that was inferred or is arguable (an end, a ring closure or a residue). Some compounds share one wording; it may come from a single statement. Peptide text beside a SMILES is read from it.
How the values were obtained:
[1] = tested on: normal human epidermal keratinocytes (NHEK-F); assay: Cell proliferation test in epidermal keratinocytes (CellTiter-Glo); format: cell-based; settings: for Cell proliferation rate (%) of epidermal keratinocytes: sample 300 μM (amino acid mixtures at the concentrations in their label), cultured 7 days, mean ± standard error, no peptide added = 100
[2] = tested on: normal human dermal fibroblasts (NHDF-NB); assay: Test for collagen-production promotion in fibroblasts (type I collagen in culture medium, EIA); format: cell-based; settings: for Collagen-producing ability (in words): fibroblasts; for Amount of collagen production (%) of skin fibroblasts, cultured for 2 days / Amount of collagen production (%) of skin fibroblasts, cultured for 4 days: sample 100 μM, mean ± standard error, no peptide added = 100

SMILES | Cell proliferation rate (%) of epidermal keratinocytes [1] [%] | Cell proliferation rate compared with the other peptides ([1]; summary statement) | Cell-proliferation promoting activity (in words) ([1]; summary statement) | Collagen-producing ability (in words) ([2]; summary statement) | Amount of collagen production (%) of skin fibroblasts, cultured for 2 days [2] [%] | Amount of collagen production (%) of skin fibroblasts, cultured for 4 days [2] [%] | Collagen-producing ability compared with the other peptides ([2]; summary statement)
CC[C@H](C)[C@H](NC(=O)[C@@H](N)CC(N)=O)C(=O)N1CCC[C@H]1C(=O)N1CCC[C@H]1C(=O)N[C@@H](CC(C)C)C(=O)O [Asn-Ile-Pro-Pro-Leu] (H-NIPPL-OH; N-terminus and C-terminus assumed) | 121 ± 2 | particularly higher effects than the other peptides | cell-proliferation promoting activity | remarkable collagen-producing ability | 132 ± 5 | 131 ± 5 | particularly higher effects than the other peptides
CC(C)[C@H](NC(=O)[C@@H]1CCCN1)C(=O)N[C@H](C(=O)N[C@H](C(=O)N1CCC[C@H]1C(=O)N1CCC[C@H]1C(=O)O)C(C)C)C(C)C [Pro-Val-Val-Val-Pro-Pro] (H-PVVVPP-OH; N-terminus and C-terminus assumed) | 114 ± 0 |  | cell-proliferation promoting activity | remarkable collagen-producing ability | 120 ± 3 | 111 ± 5 | 
CC[C@H](C)[C@H](N)C(=O)N1CCC[C@H]1C(=O)N1CCC[C@H]1C(=O)N[C@@H](CC(C)C)C(=O)O [Ile-Pro-Pro-Leu] (H-IPPL-OH; N-terminus and C-terminus assumed) | 114 ± 2 |  | cell-proliferation promoting activity | remarkable collagen-producing ability | 114 ± 4 | 108 ± 4 | 
CC(C)C[C@H](N)C(=O)N[C@@H](CCC(=O)O)C(=O)N[C@@H](Cc1c[nH]cn1)C(=O)N[C@@H](C)C(=O)O [Leu-Glu-His-Ala, reference compound] (H-LEHA-OH; N-terminus and C-terminus assumed) |  |  |  |  | 94 ± 4 |  | 
CC(C)[C@H](N)C(=O)N1CCC[C@H]1C(=O)N1CCC[C@H]1C(=O)O [Val-Pro-Pro] | 111 ± 2 |  | cell-proliferation promoting activity | remarkable collagen-producing ability | 112 ± 3 | 117 ± 4 | 
CC[C@H](C)[C@H](NC(=O)[C@@H](N)CC(N)=O)C(=O)N1CCC[C@H]1C(=O)N1CCC[C@H]1C(=O)O [Asn-Ile-Pro-Pro, reference compound] (H-NIPP-OH; N-terminus and C-terminus assumed) | 115 ± 0 |  |  |  | 123 ± 4 | 113 ± 6 | 
CC[C@H](C)[C@H](N)C(=O)N1CCC[C@H]1C(=O)N1CCC[C@H]1C(=O)O [Ile-Pro-Pro] | 119 ± 2 |  | cell-proliferation promoting activity | remarkable collagen-producing ability | 118 ± 4 | 124 ± 4 | 
CC(C)[C@H](N)C(=O)N1CCC[C@H]1C(=O)N1CCC[C@H]1C(=O)N[C@@H](Cc1ccccc1)C(=O)O [Val-Pro-Pro-Phe] (H-VPPF-OH; N-terminus and C-terminus assumed) | 114 ± 3 |  | cell-proliferation promoting activity | remarkable collagen-producing ability | 105 ± 3 | 109 ± 3 | 
CC(C)C[C@H](N)C(=O)N1CCC[C@H]1C(=O)N1CCC[C@H]1C(=O)N[C@H](C(=O)O)[C@@H](C)O [Leu-Pro-Pro-Thr] (H-LPPT-OH; N-terminus and C-terminus assumed) | 108 ± 5 |  | cell-proliferation promoting activity | remarkable collagen-producing ability | 108 ± 4 | 104 ± 5 | 
NC(=O)CC[C@H](NC(=O)[C@@H]1CCCN1C(=O)[C@@H]1CCCN1C(=O)[C@@H](N)Cc1ccccc1)C(=O)O [Phe-Pro-Pro-Gln] (H-FPPQ-OH; N-terminus and C-terminus assumed) | 111 ± 0 |  | cell-proliferation promoting activity | remarkable collagen-producing ability | 106 ± 3 | 109 ± 5 | 
